Assay results published in the supplement of paper PMC3334620.
Whole data set: some 33,000 sequences, median “E-score (-0.5 to 0.5)” near -0.016, cut for the highest 2% near 0.31. The list shows a part of the results.

Biological target: Cst6 (UniProt P40535)
Experiment: PBM E-score (8-mer binding enrichment) (E-score (-0.5 to 0.5)); higher = stronger / more preferred TF binding; most listed sequences are background and not binding sites
Conditions: protein concentration: 200 nM; construct: GST-DNA-binding domain
Outline: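 Full-length yeast transcription factors or their DNA-binding domains, GST-tagged and expressed with PURExpress, were applied at about 100-200 nM to universal all-10-mer Agilent arrays. These arrays had been made double-stranded by primer extension on fresh or once-stripped slides. Detection used fluorescent anti-GST, normalisation used masliner, and E-scores for ungapped eight-base words pooled with reverse complements came from the Universal PBM Analysis Suite.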

Going from TATAGTGA to TCGTAGCA, the “PBM E-score” value falls from 0.176 to 0.112.

Compared with GTGTTAAC, CGCCCACC is lower in “PBM E-score” value: 0.00586 for the first, -0.0447 for the second.

First: ACTTAGTC
Second: TCTAGCAA
The “PBM E-score” value of the first is lower: -0.112 for the first, 0.0361 for the second.

Going from CGTCCTTC to AGAAAGGC, the “PBM E-score” value rises from -0.0877 to 0.105.

First: CGTATAGA
Second: GCATCTAA
The “PBM E-score” value of the first is higher: 0.146 for the first, 0.134 for the second.

Going from CACGGAAC to ATTCCGAA, the “PBM E-score” value rises from 0.118 to 0.128.

First: CCCTATCG
Second: ATGGGAAC
The “PBM E-score” value of the first is lower: -0.285 for the first, -0.143 for the second.

First: AAGAAAAT
Second: CAGGTACG
The “PBM E-score” value of the first is higher: 0.272 for the first, -0.219 for the second.

Going from CGCAATCA to CTATAAGC, the “PBM E-score” value falls from 0.191 to -0.0678.

Compared with GAGACATC, GACTACTA is higher in “PBM E-score” value: -0.254 for the first, 0.0595 for the second.

Going from CATGCGGG to CAAGCGTC, the “PBM E-score” value rises from -0.0735 to 0.0922.

First: AGGCGGGA
Second: ATGGCTAC
The “PBM E-score” value of the first is lower: -0.24 for the first, 0.0569 for the second.

Going from GCCTGCGC to ACACCGGA, the “PBM E-score” value rises from -0.223 to -0.201.

Going from GACGTAAA to GTAACCAA, the “PBM E-score” value falls from 0.374 to 0.00921.

First: ACTTTCAA
Second: GATAAGAC
The “PBM E-score” value of the first is higher: 0.0592 for the first, -0.0263 for the second.

First: CAGTGAAC
Second: GCGCGGAA
The “PBM E-score” value of the first is lower: 0.0872 for the first, 0.0874 for the second.

Going from CAGGTGTA to GCTGCGTA, the “PBM E-score” value falls from 0.0748 to -0.0643.

Compared with GTCCAATA, GAAGGGCC is lower in “PBM E-score” value: -0.112 for the first, -0.173 for the second.

Compared with GAGACGCA, TCAAGCAA is lower in “PBM E-score” value: -0.00906 for the first, -0.0619 for the second.

First: AGCCGACG
Second: CTTCGGGA
The “PBM E-score” value of the first is higher: -0.112 for the first, -0.199 for the second.

First: CCGCGTGA
Second: CGAGATCA
The “PBM E-score” value of the first is higher: 0.197 for the first, 0.00206 for the second.

Going from CCACTCCA to CATTGCCA, the “PBM E-score” value rises from -0.161 to 0.065.

Compared with ACTTCGTG, CGAAAATC is higher in “PBM E-score” value: -0.0493 for the first, 0.236 for the second.

First: TATCGTCA
Second: ACGCGGCT
The “PBM E-score” value of the first is higher: 0.397 for the first, 0.248 for the second.

First: AGCTACAT
Second: AGTACCTG
The “PBM E-score” value of the first is higher: 0.0188 for the first, -0.121 for the second.

First: CCATTCTA
Second: CGAACGAC
The “PBM E-score” value of the first is lower: -0.0992 for the first, -0.0211 for the second.

Compared with CCTGACAA, TACGGCAA is higher in “PBM E-score” value: -0.00807 for the first, 0.221 for the second.

Compared with AGGCTGTC, CCAGGGTC is lower in “PBM E-score” value: -0.242 for the first, -0.294 for the second.

First: GATCCGCA
Second: CCCGCATC
The “PBM E-score” value of the first is lower: -0.109 for the first, -0.0893 for the second.

Going from ATTCCAGG to AACCCCAA, the “PBM E-score” value rises from -0.0925 to -0.0731.

Compared with ACCTGTAC, AGACCTCG is higher in “PBM E-score” value: -0.049 for the first, -0.0278 for the second.

Compared with CCCGTCCA, GATAAGTA is higher in “PBM E-score” value: -0.184 for the first, 0.0146 for the second.

First: CCATAGTC
Second: GAATGGTC
The “PBM E-score” value of the first is higher: -0.16 for the first, -0.253 for the second.

First: ACAATGGT
Second: AAGCGATT
The “PBM E-score” value of the first is lower: -0.0312 for the first, -0.00953 for the second.

First: CAAGCTAA
Second: ACGCCAGA
The “PBM E-score” value of the first is lower: -0.17 for the first, -0.121 for the second.

Going from AGACTCCG to CGATTGAC, the “PBM E-score” value rises from -0.0542 to 0.171.

First: ATACGGGA
Second: ACCCGACA
The “PBM E-score” value of the first is higher: -0.105 for the first, -0.114 for the second.

Going from CCTATATA to CAACTTCG, the “PBM E-score” value falls from 0.0362 to 0.0207.

First: CTTCCTGA
Second: AGCGTCCA
The “PBM E-score” value of the first is higher: 0.112 for the first, -0.159 for the second.

Going from AATATTTG to CGCGGTGC, the “PBM E-score” value falls from 0.241 to -0.139.

First: AGGGGAGG
Second: ATCCACAT
The “PBM E-score” value of the first is lower: -0.244 for the first, 0.0893 for the second.

First: AAACAGTG
Second: CATACATC
The “PBM E-score” value of the first is lower: 0.0576 for the first, 0.289 for the second.

First: GGGTACCC
Second: CAAAGCCA
The “PBM E-score” value of the first is lower: -0.239 for the first, 0.113 for the second.

Compared with AATACTGG, CCCAGCAC is lower in “PBM E-score” value: -0.0267 for the first, -0.382 for the second.

Compared with GCGTCCTA, CCCGGCCG is lower in “PBM E-score” value: -0.207 for the first, -0.242 for the second.

Going from CGTAAAGA to CAGACCCA, the “PBM E-score” value falls from 0.167 to -0.135.

First: CTGCTAGA
Second: GATTGCGA
The “PBM E-score” value of the first is lower: -0.0579 for the first, 0.0713 for the second.

First: CATATCAG
Second: CGGTTGAC
The “PBM E-score” value of the first is lower: 0.0501 for the first, 0.175 for the second.

Compared with AGATTCTG, GATGCCTA is higher in “PBM E-score” value: -0.0861 for the first, -0.0343 for the second.

Going from GCGGTGCC to GACTTACA, the “PBM E-score” value falls from -0.0111 to -0.0298.

Going from CACTAGTA to AACAGATA, the “PBM E-score” value rises from 0.069 to 0.0862.

First: ACCTATAA
Second: CTGCTGTC
The “PBM E-score” value of the first is higher: 0.0182 for the first, -0.123 for the second.

First: ATCGAGTC
Second: ACCAGGCC
The “PBM E-score” value of the first is higher: -0.0616 for the first, -0.0858 for the second.

First: TAAATCGA
Second: CAGTGGGG
The “PBM E-score” value of the first is higher: 0.204 for the first, -0.322 for the second.

Compared with GAGGAAAC, CCCGCTAA is lower in “PBM E-score” value: -0.14 for the first, -0.325 for the second.
